Results taken from the supplement of paper PMC4604168 (melanoma cell lines).
Some of the results follow. Most values come without repeats; read them as rough.

How the values were obtained:
Test in all cases: cell count relative to DMSO control; melanoma cells; higher = more viable cells
Conditions in all cases: library dose: low library concentration; 72 h
WM115 = test system: WM115
WM1716 = test system: WM1716
WM1745 = test system: WM1745
WM3526 = test system: WM3526
WM3619 = test system: WM3619
WM451Lu = test system: WM451Lu
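Further: cell number obtained by counting DAPI-stained nuclei in high-throughput microscope images with image analysis software, screen run in 1,536-well plates.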

Structure (SMILES) | cell count (WM115) [%] | cell count (WM1716) [%] | cell count (WM1745) [%] | cell count (WM3526) [%] | cell count (WM3619) [%] | cell count (WM451Lu) [%]
COCC[n+]1c2c(n(Cc3cnccn3)c1C)C(=O)c1ccccc1C2=O + NCC(=O)Nc1ccc(-n2nc(C(F)(F)F)cc2-c2ccc3c(ccc4ccccc43)c2)cc1 [OSU03012] (first compound 0.0004 µM, partner dose 1 µM) | 74.4 | 82.6 | 97.6 | 35.9 | 80.5 | 56.4
OCc1c[nH]c2ccccc12 [Indole-3-carbinol] + Oc1cc(-c2nc(-c3ccccc3)[nH]c2-c2ccncc2)ccc1Cl [L779450] (first compound 0.8 µM, partner dose 0.2 µM) | 87.2 | 121 | 94.4 | 96.1 | 96.8 | 116
OCc1c[nH]c2ccccc12 [Indole-3-carbinol] + COc1cc2ncnc(Nc3ccc(Oc4ccccc4)cc3)c2cc1OC [SrcI1] (first compound 0.8 µM, partner dose 2 µM) | 105 | 126 | 90.1 | 102 | 107 | 105
OCc1c[nH]c2ccccc12 [Indole-3-carbinol] + Cn1cncc1[C@@](N)(c1ccc(Cl)cc1)c1ccc2c(c1)c(-c1cccc(Cl)c1)cc(=O)n2C [tipifarnib] (first compound 0.8 µM, partner dose 0.01 µM) | 95.2 | 72.4 | 97.3 | 96.8 | 92.3 | 98.9
COCC[n+]1c2c(n(Cc3cnccn3)c1C)C(=O)c1ccccc1C2=O + O=c1cc(-c2cccc3c2Sc2ccccc2S3)oc(N2CCOCC2)c1 [KU55933] (first compound 0.0004 µM, partner dose 1 µM) | 94.1 | 94 | 86.6 | 88 | 103 | 114
OCc1c[nH]c2ccccc12 [Indole-3-carbinol] + CC1(C)NC(=O)N(c2ccc([N+](=O)[O-])c(C(F)(F)F)c2)C1=O [nilutamide] (first compound 0.8 µM, partner dose 1 µM) | 105 | 105 | 77.1 | 93.1 | 92.8 | 127
Clc1ccc(Nc2nnc(Cc3ccncc3)c3ccccc23)cc1 [vatalanib] + C#Cc1cccc(Nc2ncnc3cc(OCCOC)c(OCCOC)cc23)c1 [erlotinib] (first compound 2 µM, partner dose 0.8 µM) | 100 | 98.9 | 77.3 | 91.3 | 87.6 | 92.4
Clc1ccc(Nc2nnc(Cc3ccncc3)c3ccccc23)cc1 [vatalanib] + C=CCn1c(=O)c2cnc(Nc3ccc(N4CCN(C)CC4)cc3)nc2n1-c1cccc(C(C)(C)O)n1 [MK1775] (first compound 2 µM, partner dose 0.02 µM) | 81.5 | 81.2 | 77.2 | 105 | 76.2 | 113
Clc1ccc(Nc2nnc(Cc3ccncc3)c3ccccc23)cc1 [vatalanib] + Cn1cc(/C=C2\C(=O)Nc3cccnc32)c2ccccc21 [GW441756] (first compound 2 µM, partner dose 0.4 µM) | 87.5 | 98.6 | 86.3 | 110 | 112 | 98.5
C#Cc1cccc(Nc2ncnc3cc(OCCOC)c(OCCOC)cc23)c1 [erlotinib] + Cn1c(Nc2ccc(C(F)(F)F)cc2)nc2cc(Oc3ccnc(-c4ncc(C(F)(F)F)[nH]4)c3)ccc21 [CHIR265] (first compound 0.8 µM, partner dose 0.08 µM) | 59.1 | 78.4 | 75.7 | 47 | 80.9 | 82
OCc1c[nH]c2ccccc12 [Indole-3-carbinol] + CN(C)S(=O)(=O)c1ccc2c(c1)/C(=C/c1cc3c([nH]1)CCCC3)C(=O)N2 [SU6656] (first compound 0.8 µM, partner dose 0.4 µM) | 75.2 | 109 | 79.5 | 115 | 123 | 94.6
COCC[n+]1c2c(n(Cc3cnccn3)c1C)C(=O)c1ccccc1C2=O + CC(C)CCN1c2nc(Nc3cc(F)c(O)c(F)c3)ncc2N(C)C(=O)C1C [BID1870] (first compound 0.0004 µM, partner dose 0.2 µM) | 107 | 91.7 | 81 | 90.1 | 105 | 86.9
OCc1c[nH]c2ccccc12 [Indole-3-carbinol] + NCC(=O)Nc1ccc(-n2nc(C(F)(F)F)cc2-c2ccc3c(ccc4ccccc43)c2)cc1 [OSU03012] (first compound 0.8 µM, partner dose 1 µM) | 78.5 | 106 | 110 | 65.7 | 99.8 | 60.4
